Measurements from PubChem BioAssay AID1508642 (National Center for Advancing Translational Sciences (NCATS), 2021).
Out of some 43,000 compounds screened, about 200 (0.47%) were called active. Inconclusive results (about 12%) are left out. Calls follow the shape of the dose curve; as a rule, active = well fitted cell-killing curve with a large enough effect; inconclusive = small, poorly fitted or top-dose-only effect, or effect the other way; inactive = flat fitted curve, though single readings scatter. Some of the results follow.

Assay: Cell viability qHTS assay in S16 Pmp22-F2sN cells; also: nearly all actives have a fitted effect of over 65% in size
Conditions: S16 Pmp22-F2sN Schwann cells viability, CellTiter-Glo, 24 h; series mostly up to 57.5 µM; activity change, negative = cytotoxicity: at the top concentration
How it was run: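 Viability was measured by CellTiter-Glo luminescence (15 min, room temperature). This followed 24 h at 37 °C of compound exposure (23 nL pin transfer) in S16 Pmp22-F2sN Schwann cells, 500-1,000 per well.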
% is scaled to controls: 0 for no effect and ±100 for the full control effect.

| Compound | activity change, negative = cytotoxicity |
| --- | --- |
| COc1cccc(N2CCN(C(=O)c3c4c(nc5ccccc35)C(=O)N(C3CCCCC3)C4)CC2)c1 | inactive: -5.9% |
| Cc1cc(SCC(=O)Nc2nsc(-c3ccc(C(C)(C)C)cc3)n2)nc2ccccc12 | inactive: 0.448% |
| CCCOc1ccc(-c2cccc(NS(=O)(=O)c3ccc(CC)cc3)c2)nn1 | inactive: -22.4% |
| COc1ccc(NC(=O)CN2CCN(c3ccccc3F)CC2)c(OC)c1 | inactive: 9.77% |
| COc1ccc(C(=O)N2CCN(C(=O)COc3ccc(C)cc3)CC2)cc1OC | inactive: -8.4% |
| O=C(Cn1cc(S(=O)(=O)N2CCN(c3ccccc3F)CC2)c2ccccc2c1=O)Nc1ccc(F)cc1Cl | inactive: -3.91% |
| COc1cc2c(C(=O)N3CCN(c4cc(Cl)ccc4C)CC3)cn(CC(C)C)c(=O)c2cc1OC | inactive: 10% |
| COc1ccc(S(=O)(=O)NCCc2sc(-c3cccc(F)c3)nc2C)cc1 | inactive: -4.08% |
| O=C(Nc1ccccc1F)C(Cc1ccccc1)N1Cc2ccccc2C1=O (stereo unspecified) | inactive: 9.43% |
| CC(C)c1ccc(NC(=O)c2ccc(F)c(S(=O)(=O)N3CCN(c4ccccc4F)CC3)c2)cc1 | inactive: -4.44% |
| Cc1ccc(-c2nn3c(=O)cc(CN4CCN(C(=O)c5ccc(C(C)(C)C)cc5)CC4)nc3s2)cc1 | inactive: 15.8% |
| CCc1ccc(S(=O)(=O)n2ccnc2)cc1 | inactive: 7.89% |
| COCCn1c(=NC(=O)c2ccc3c(c2)OCCO3)sc2cc(NC(C)=O)ccc21 | inactive: 0.808% |
| O=C(Nc1ccc(F)cc1F)N1CCc2c(sc3c2CCCC3)C1c1ccc(F)cc1 (stereo unspecified) | inactive: -2.14% |
| COc1cc(NS(=O)(=O)c2ccc(NC(=O)c3ccc(OC)c(Br)c3)cc2)nc(OC)n1 | inactive: -6.16% |
| Cc1ccc(NC(=O)CSc2nccn2Cc2ccc3c(c2)OCO3)c(C)c1 | inactive: -1.64% |
| Cc1cc(C)c(NC(=O)CN(C)S(=O)(=O)c2ccc3c(c2)c(=O)n(C)c(=O)n3C)c(C)c1 | inactive: 2.29% |
| CCC(C)NC(=O)CCC(=O)NNc1nc2ccccc2c2nc(C)nn12 (stereo unspecified) | inactive: 16.3% |
| Cc1ccc(C)c(N2CCN(C(=O)C3CCCN(S(=O)(=O)c4cccc5nonc45)C3)CC2)c1 (stereo unspecified) | inactive: -24.5% |
| CCOCCc1nn2c(=O)cc(COC(=O)c3cccc(C)c3)nc2s1 | inactive: 7.04% |
| Cc1ccc(-c2cc(C(=O)Nc3c(C(=O)c4ccc(C)c(F)c4)oc4ccccc34)no2)cc1 | inactive: 4.21% |
| CCOC(=O)c1c(NC(=O)CSc2cn(CCNC(=O)c3c(F)cccc3F)c3ccccc23)sc2c1CCCC2 | inactive: 3.4% |
| Cn1c(=O)c2c(n3c4ccccc4nc13)NC(=O)CC2c1cccc(Cl)c1 (stereo unspecified) | inactive: -18.2% |

| Compound | activity change, negative = cytotoxicity |
| --- | --- |
| COC(=O)c1sccc1S(=O)(=O)N1CCN(c2ccc(C(C)=O)cc2)CC1 | inactive: 6.73% |
| COc1ccc(Cl)cc1NC(=O)Cn1nnc(C(=O)NCc2ccc3c(c2)OCO3)c1N | inactive: 6.89% |
| CCN(CC)CCOC(=O)c1ccc(NC(=O)c2cc3cccc(OC)c3oc2=O)cc1 | inactive: 0.527% |
| COc1ccc(S(=O)(=O)NCCc2sc(-c3ccccc3)nc2C)cc1F | inactive: -0.958% |
| CC(=O)c1ccc(NC(=O)c2cc(C3CC3)nc3c2c(C)nn3-c2ccc(C)cc2)cc1 | inactive: 26.8% |
| COc1ccccc1CN(Cc1ccco1)c1cnc(S(C)(=O)=O)nc1C(=O)Nc1ccccc1Cl | inactive: -0.216% |
| CCOc1ccc(CCNC(=O)CCCc2nnc3n(C)c(=O)c4sccc4n23)cc1OCC | inactive: 7.13% |
| Cc1c(C(=O)OC2CCC(C)CC2)[nH]c2c1C(=O)CC(c1ccccc1Cl)C2 (stereo unspecified) | inactive: -27.8% |
| COc1ccc(OCC(=O)Nc2nc(-c3ccc(Br)cc3)ns2)cc1 | inactive: -4.14% |
| COc1ccc(NC(=O)NCc2c(-n3cccc3)sc3c2CCCC3)c(OC)c1 | inactive: 2.88% |
| CCNc1nc(NC(C)CC)nc(Oc2ccc(OCC)nn2)n1 (stereo unspecified) | inactive: -5.51% |
| CCc1cccc(C)c1NC(=O)NC1COc2ccccc2C1 (stereo unspecified) | inactive: -1.76% |
| O=C(Nc1ccc(Cl)cc1)c1cc(S(=O)(=O)N2CCCc3ccccc32)ccc1F | inactive: -24.2% |
| CCOC(=O)c1noc2ncn(Cc3cccc(C#N)c3)c(=O)c12 | inactive: 1.01% |
| O=C(CCCn1c(=O)[nH]c2ccsc2c1=O)N1CCN(c2cccc(C(F)(F)F)c2)CC1 | inactive: -10.7% |
| Cc1cc(Cl)ccc1NC(=O)CN1C(=O)COc2ccc(S(=O)(=O)N3CCC(C)CC3)cc21 | inactive: 7.03% |
| COc1ccc(NCc2cc3cc4c(cc3n(CC(=O)Nc3ccccc3)c2=O)OCO4)cc1 | inactive: -0.844% |
| COc1ccc(NC(=O)CSc2nc(-c3ccc(OC)c(OC)c3)[nH]c2-c2ccc(C)cc2)cc1 | inactive: -2.73% |
| COc1cccc(CNC(=O)Cn2nc3c(cc2=O)CCCC3)c1OC | inactive: 4.29% |
| Cc1ccc(C2c3c(-c4ccccc4O)n[nH]c3C(=O)N2CCc2ccccc2)cc1 (stereo unspecified) | inactive: -25.2% |
| CC1CCCN(C(=O)CCS(=O)(=O)c2cc3c(cc2Cl)NC(=O)CO3)C1 (stereo unspecified) | inactive: 0.0764% |
| CCOc1ccc(CNC(=O)Cn2cc3c(n2)-c2c(oc(C(=O)N4CCCC4)c2C)CC3)cc1 | inactive: -17.8% |
| CCCC1=Nc2cc(C(=O)NCC(C)c3ccccc3)ccc2Sc2ccccc21 (stereo unspecified) | inactive: -5.13% |
